Test results: PubChem BioAssay AID624417 (National Center for Advancing Translational Sciences (NCATS), 2012)
Hit rate of the full screen: of about 410,000 compounds, about 6,400 (1.6%) were called active. Inconclusive results, whose numbers are uncertain, are shown with a selection of clear calls. Calls follow the shape of the dose curve; as a rule, active = well fitted inhibition curve with a large enough effect; inconclusive = small, poorly fitted or top-dose-only effect; inactive = no such curve, though single readings can be large or run the other way. No potency is given beside an inconclusive call; the fits are too rough.

These molecules were tested against Glucagon-like peptide 1 receptor (Homo sapiens) (UniProt P43220) (assay: qHTS of GLP-1 Receptor Inverse Agonists (Inhibition Mode)). Settings: HEK293 GLP-1R CRE-luciferase, luminescence, 24 h, GLP-1R form is constitutively active; series mostly up to 38.3 µM.
In short: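 HEK293 cells stably co-expressing constitutively active GLP-1R and a cAMP-responsive luciferase reporter were seeded in DMEM with 10% Nu serum, given compounds after 12 h, and incubated 24 h at 37 deg C. Luminescence was then read.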
Also: nearly all actives have a fitted effect of over 55% in size.
Potency is read from the fitted curve at half-maximal effect; tags tell the direction and shape of the fitted curve.

Chain of UniProt P43220 (P43220 whole entry, looked up): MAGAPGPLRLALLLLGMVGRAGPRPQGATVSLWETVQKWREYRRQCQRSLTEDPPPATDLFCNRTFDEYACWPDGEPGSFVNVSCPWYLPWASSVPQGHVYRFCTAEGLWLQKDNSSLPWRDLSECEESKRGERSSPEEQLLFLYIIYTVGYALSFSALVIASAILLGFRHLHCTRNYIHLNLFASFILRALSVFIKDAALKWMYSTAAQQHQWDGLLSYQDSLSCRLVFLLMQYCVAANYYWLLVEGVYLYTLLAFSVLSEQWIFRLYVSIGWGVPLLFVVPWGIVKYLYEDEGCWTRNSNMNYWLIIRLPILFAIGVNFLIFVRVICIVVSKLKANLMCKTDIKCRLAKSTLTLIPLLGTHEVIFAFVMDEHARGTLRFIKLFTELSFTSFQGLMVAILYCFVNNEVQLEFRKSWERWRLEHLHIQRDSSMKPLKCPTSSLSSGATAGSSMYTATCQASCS

Row | SMILES | Potency
1 | O=[N+]([O-])c1ccccc1S(=O)(=O)Nc1ncccn1 | inactive
2 | Brc1ccc(-c2noc(CCc3ccccc3)n2)o1 | inconclusive [inhibitor, single point]
3 | COc1ccc(/C=N/NC(=O)c2cccc(OC(F)(F)C(F)F)c2)cc1O | inconclusive [inhibitor, single point]
4 | CCOC(=O)C(NC(=O)CCl)(Nc1sc(C)c(CC)c1C#N)C(F)(F)F (configuration not stated) | inconclusive [inhibitor, single point]
5 | COc1ccc(C2c3ccsc3CCN2C(=O)C(C)(C)C)cc1 (configuration not stated) | inconclusive [inhibitor, partial curve, poor fit]
6 | Cc1ccccc1OCc1nc2ccccc2c(=O)n1/N=C/c1ccco1 | inconclusive [inhibitor, partial curve]
7 | CN(CC(=O)Nc1ccccc1Br)C(=O)c1ccccc1OCc1ccc(F)cc1 | inconclusive [inhibitor, single point]
8 | COC(=O)c1c(C)oc2ccc(N(C(=O)c3ccncc3)S(=O)(=O)c3ccccc3)cc12 | inconclusive [inhibitor, single point]
9 | CCOc1cccc2sc(N(CCN(C)C)C(=O)/C=C/c3cccs3)nc12 | inconclusive [inhibitor, partial curve, poor fit]
10 | COc1cccc(C(CC(=O)Nc2cccc3ccccc23)NC(=O)c2ccccc2)c1 (configuration not stated) | inconclusive [inhibitor, single point]
11 | O=C(NCCc1nc2ccccc2[nH]1)/C(=C/c1ccc(F)cc1)NC(=O)c1ccco1 | inactive
12 | Cc1ccc2c(c1)cc(CN(Cc1ccco1)C(=O)COc1ccccc1)c1nnnn12 | inconclusive [inhibitor, partial curve, poor fit]
13 | CCOC(=O)Cn1cc(C#N)c2cccc(CC)c21 | inconclusive [inhibitor, single point]
14 | COc1ccc(CNC(=O)CN(Cc2ccco2)C(=O)CNS(=O)(=O)c2ccccc2)cc1 | inconclusive [inhibitor, full curve, poor fit]
15 | CCN1CCN(c2cc(N3CCc4ccccc4C3)c(F)cc2[N+](=O)[O-])CC1 | inconclusive [inhibitor, partial curve, poor fit]
16 | CCN(CC(=O)Nc1ccccc1C(F)(F)F)C(=O)c1cc(-c2cccs2)nn1-c1ccccc1 | inconclusive [inhibitor, full curve, poor fit]
17 | CCN(CCNC(=O)C1CCN(S(=O)(=O)c2cccc3cccnc23)CC1)c1ccccc1 | inconclusive [inhibitor, partial curve, poor fit]
18 | Cc1cccc(NC(=S)NCCc2ccc(F)cc2)c1C | inconclusive [inhibitor, partial curve, poor fit]
19 | CCOC(=O)C1=C[C@@H](C2CCCCC2)N(S(=O)(=O)c2ccc([N+](=O)[O-])cc2)[C@H]1c1ccccc1 | inconclusive [inhibitor, full curve, poor fit]

Row | SMILES | Potency
20 | Cc1cccc(C)c1NS(=O)(=O)c1ccc(NC(=O)c2ccc(Cl)c([N+](=O)[O-])c2)cc1 | inconclusive [inhibitor, partial curve, poor fit]
21 | N#Cc1c(NC(=O)CCN2C(=O)c3ccccc3C2=O)oc(-c2ccccc2)c1-c1ccccc1 | inconclusive [inhibitor, single point]
22 | CC1(Oc2ccccc2-c2ccn[nH]2)CCN(Cc2ccc(OC(F)(F)F)cc2)C1 (configuration not stated) | inconclusive [inhibitor, single point]
23 | O=C(NC1CCCCCC1)c1cc2n(n1)C(C(F)(F)F)CC(c1ccco1)N2 (configuration not stated) | inconclusive [inhibitor, full curve, poor fit]
24 | CC(C)COc1ccc(CNC(=S)NCc2ccccc2)cc1 | inconclusive [inhibitor, single point]
25 | Cc1nn(C)c(NC(=O)c2ccc(Cl)cc2Cl)c1Br | inconclusive [inhibitor, single point]
26 | COc1ccc(OCC(=O)OC2CCN(C)CC2)cc1 | inactive
27 | C=CCn1c(C)cc(C(=O)CSc2nnc(-c3cccc(S(=O)(=O)N(CC)CC)c3)o2)c1C | inconclusive [inhibitor, single point]
28 | CCc1nc2ccc(C(=O)NCCc3ccccn3)cn2c1N(C)Cc1ccc(N(C)C)cc1 | inactive
29 | CC(/C=C(\NC(=O)c1ccccc1)C(=O)N=Nc1c(O)[nH]c2ccc(C)cc12)=C\c1ccccc1 | inconclusive [inhibitor, full curve, poor fit]
30 | NC(=O)CC(NC(=O)c1ccccc1)c1ccc(N2CCC(Cc3ccccc3)CC2)c([N+](=O)[O-])c1 (configuration not stated) | inconclusive [inhibitor, partial curve, poor fit]
31 | CCOc1ccc(CCNC(=O)Cn2nc(C)n3c(cc4occc43)c2=O)cc1OCC | inactive
32 | CC(C)C(N)c1csc(Nc2ccc(C(=O)N(C)Cc3ccccc3)cn2)n1 (configuration not stated) | inconclusive [inhibitor, single point]
33 | Cc1cc(S(=O)(=O)N2CCCC(N(C)CCc3ccccn3)C2)c(C)cc1Cl (configuration not stated) | inconclusive [inhibitor, single point]
34 | COc1ccc2ccccc2c1/C=N/NC(=O)c1nnn(-c2nonc2N)c1C(C)C | inconclusive [inhibitor, partial curve, poor fit]
35 | CCO/N=C(\C)c1c(O)cc(C(C)C)n(-c2ccccc2)c1=O | inconclusive [inhibitor, partial curve]
36 | Cc1cc(C)cc(C(=O)N2CCN(Cc3ccc4c(c3)OCO4)CC2)c1 | inconclusive [inhibitor, single point]
37 | Cc1nc(SC(C)C(=O)Nc2ccccc2C)cc(-c2ccccc2)n1 (configuration not stated) | inconclusive [inhibitor, single point]
